Out of some 310,000 compounds screened, about 14,000 (4.5%) showed an effect of 50% or more. Effects have a minus sign here. Some of the results follow.
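Also: peak tail current of the secondary pulse compared with the same well before compound.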

This experiment deals with human ether-à-go-go-related gene (hERG) potassium channel (human, UniProt Q12809). Description: primary screen, population patch clamp on CHO cells stably expressing hERG.
human ether-à-go-go-related gene (hERG) potassium channel, sequence (Q12809 whole entry, looked up): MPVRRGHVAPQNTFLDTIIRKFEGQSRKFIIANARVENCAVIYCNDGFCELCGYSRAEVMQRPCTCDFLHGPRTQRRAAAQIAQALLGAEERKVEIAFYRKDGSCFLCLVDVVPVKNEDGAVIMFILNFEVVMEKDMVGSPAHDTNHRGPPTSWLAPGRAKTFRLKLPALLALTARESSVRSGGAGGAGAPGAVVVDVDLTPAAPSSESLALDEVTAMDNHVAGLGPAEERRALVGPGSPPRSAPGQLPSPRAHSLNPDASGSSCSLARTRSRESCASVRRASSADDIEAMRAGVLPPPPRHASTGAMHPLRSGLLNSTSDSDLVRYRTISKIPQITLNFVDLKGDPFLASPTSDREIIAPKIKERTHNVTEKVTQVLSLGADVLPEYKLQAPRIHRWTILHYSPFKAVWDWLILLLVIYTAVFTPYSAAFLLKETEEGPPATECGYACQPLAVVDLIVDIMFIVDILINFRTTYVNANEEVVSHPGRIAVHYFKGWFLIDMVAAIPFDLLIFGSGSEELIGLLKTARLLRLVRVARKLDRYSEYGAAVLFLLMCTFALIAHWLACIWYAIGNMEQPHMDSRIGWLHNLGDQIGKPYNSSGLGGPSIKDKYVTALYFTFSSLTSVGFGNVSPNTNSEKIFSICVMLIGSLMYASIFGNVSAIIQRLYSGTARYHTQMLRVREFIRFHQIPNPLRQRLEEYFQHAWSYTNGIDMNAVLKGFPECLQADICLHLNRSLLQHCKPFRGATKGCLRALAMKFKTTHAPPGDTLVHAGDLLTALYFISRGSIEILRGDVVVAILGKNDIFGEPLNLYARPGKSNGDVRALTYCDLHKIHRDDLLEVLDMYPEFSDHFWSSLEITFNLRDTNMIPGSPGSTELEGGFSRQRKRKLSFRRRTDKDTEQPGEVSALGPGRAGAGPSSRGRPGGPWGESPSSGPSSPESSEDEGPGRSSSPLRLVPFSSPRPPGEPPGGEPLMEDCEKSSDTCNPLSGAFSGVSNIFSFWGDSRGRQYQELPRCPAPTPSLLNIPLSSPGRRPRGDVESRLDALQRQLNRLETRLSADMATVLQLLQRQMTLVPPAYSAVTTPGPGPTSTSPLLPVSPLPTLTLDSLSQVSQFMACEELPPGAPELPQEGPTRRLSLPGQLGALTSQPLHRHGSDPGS
Consider `CCn1cc(C(=O)NCc2ccccc2OC)c(=O)c2cc(S(=O)(=O)N(C)C)ccc21`, for which the “hERG current change (%, negative = inhibition) at 10uM” value was determined as 4.32%. Then `COc1cc2nc(-c3ccccc3C)oc(=O)c2cc1OC`, with 12.8%; and `CCC(=O)NNc1ncnc2c1cnn2C`, with -0.215%. Take `CSCCC(NC(=O)COc1ccccc1)C(=O)N(C)CC(=O)Nc1c(C)cccc1C` (stereo not drawn): the “hERG current change (%, negative = inhibition) at 10uM” value is -0.078%.

Turning to `CC1CCc2c(sc3[nH]c(=S)n(C)c(=O)c23)C1` (stereo not drawn), the “hERG current change (%, negative = inhibition) at 10uM” value worked out at 27.7%. For `Cc1c(C)c2ccc(OCC(=O)NCCCn3ccnc3)cc2oc1=O` the value was 14%. As for `NC(N)=N/N=C/c1ccc(OCc2ccc(Cl)cc2)cc1`, the “hERG current change (%, negative = inhibition) at 10uM” value is recorded as -27.2%. Then `Cn1nc([N+](=O)[O-])nc1Oc1ccccc1C(=O)N1CCOCC1`, with 17.4%. As to `Cn1cc(CNC(=O)C23CC4CC(CC(C4)C2)C3)cn1`, the “hERG current change (%, negative = inhibition) at 10uM” value is listed as 19%.

With `c1ccc(Cn2ncc3c(N4CCCCC4)ncnc32)cc1`, the “hERG current change (%, negative = inhibition) at 10uM” value is on record as -14.8%.

On to `COc1ccc(C2=[N+]([O-])C(C)(C)N(O)C2C)cc1` (stereo not drawn), for which the “hERG current change (%, negative = inhibition) at 10uM” value is listed as 5.42%. For `Cc1ccc(NC(=O)Cn2cccc2)c(Br)c1`, the “hERG current change (%, negative = inhibition) at 10uM” value is recorded as 4.92%. Consider `Cc1cc(=O)[nH]c(SCC(=O)/C=C2\N(C)c3ccccc3C2(C)C)n1`, for which the “hERG current change (%, negative = inhibition) at 10uM” value is -5.21%. `Cc1ccc2[nH]c3c(=O)n(CC(=O)N4CCN(C)CC4)ncc3c2c1`: the “hERG current change (%, negative = inhibition) at 10uM” value is -1.46%.

As for `COC(=O)c1cc(C(=O)OCC(=O)NC(=O)c2ccccc2)cc([N+](=O)[O-])c1`, the “hERG current change (%, negative = inhibition) at 10uM” value came out at 11.9%.

`CC(C)(C)c1cc(NC(=O)NN2CCOCC2)nn1-c1c(Cl)cc(Cl)cc1Cl`: the “hERG current change (%, negative = inhibition) at 10uM” value was 13%. For the molecule `Cc1ccc(Cn2nnnc2CN2CCC(n3nnc4cc(C(F)(F)F)ccc43)CC2)cc1`, the “hERG current change (%, negative = inhibition) at 10uM” value stood at 2.84%.

With `Cc1ccc(S(=O)(=O)NNC(=O)C2COc3ccccc3O2)cc1` (stereo not drawn), the “hERG current change (%, negative = inhibition) at 10uM” value turned out to be 5.24%. With `COC(=O)C1=C(c2ccc(S(C)(=O)=O)cc2)C[C@@H]2CC[C@H]1N2C(=O)N1CCC(O)CC1`, the “hERG current change (%, negative = inhibition) at 10uM” value amounted to 7.91%.

Consider `O=C(Nc1nc2ccccc2n1CCN1CCOCC1)c1ccc(COc2ccccc2Br)o1`, for which the “hERG current change (%, negative = inhibition) at 10uM” value was -32.4%. For `CCCN1CCC(=NNc2ccc(C(=O)O)cc2)CC1.O=S(=O)(O)O` the value was 8.14%.

In the case of `COc1ccc(OCC(=O)N/N=C(\C)CC(=O)Nc2ccc(NC(C)=O)cc2)cc1`, the “hERG current change (%, negative = inhibition) at 10uM” value turned out to be 16.3%.

As for `COC(=O)c1ccc(NC(=O)c2ccccc2N(C)S(=O)(=O)c2ccccc2)cc1`, the “hERG current change (%, negative = inhibition) at 10uM” value is given as 16.3%. Then `COC(=O)c1c(NC(=O)C2CC=CCC2C(=O)O)sc(C(N)=O)c1C` (stereo not drawn), with -18%; and `COc1ccc(/C=C/c2ccncc2)cc1`, with -1.97%; and `CC(=O)OC(C(=O)NC1CCCCC1)c1ccc(C#N)cc1` (stereo not drawn), with -13.4%.

Regarding `Cc1cc(C)cc(N(C(=O)c2cccs2)C2C=CS(=O)(=O)C2)c1` (stereo not drawn), the “hERG current change (%, negative = inhibition) at 10uM” value is recorded as -2.35%.

For the molecule `C(=N\N1CCN(C2c3ccccc3-c3ccccc32)CC1)/c1ccccn1`, the “hERG current change (%, negative = inhibition) at 10uM” value amounted to 10.8%. `C/C=C/c1ccc(OCCOCCNCc2ccccc2)c(OC)c1.O=C(O)C(=O)O`: the “hERG current change (%, negative = inhibition) at 10uM” value is -37%. On to `COc1ccc(-n2nc(C(=O)NCC(=O)N3CCCCCC3)c3ccccc3c2=O)cc1OC`, for which the “hERG current change (%, negative = inhibition) at 10uM” value is -9.42%.

Regarding `O=C(Nc1ccccc1)c1sccc1Oc1ccc([N+](=O)[O-])cc1F`, the “hERG current change (%, negative = inhibition) at 10uM” value is reported as -47.3%.

Turning to `CCOC(=O)c1ccc(NC(=O)C2(c3ccc(OC)cc3)CCCC2)cc1`, the “hERG current change (%, negative = inhibition) at 10uM” value is 4.25%. Turning to `Cc1csc(NC(C)c2nc3cc(Cl)c(Cl)cc3n2CCCO)n1` (stereo not drawn), the “hERG current change (%, negative = inhibition) at 10uM” value is -11.7%. For the molecule `CCNC(=S)N/N=C(\C)c1cccc(OC)c1`, the “hERG current change (%, negative = inhibition) at 10uM” value is listed as -14.9%.

Regarding `Cc1ccc(C)c(C(=O)N2CCN(c3ncccn3)CC2)c1`, the “hERG current change (%, negative = inhibition) at 10uM” value was found to be 5.25%. Then `COc1ccccc1N1CCN(c2nnc(-c3ccc(F)cc3)c3ccccc23)CC1`, with 10.2%; and `Cc1sc2ncnc(N3CCCC(C)C3)c2c1C.Cl` (stereo not drawn), with 0.33%; and `FC(F)(F)c1cccc(Cc2noc(CN3CCCCC3c3ccccn3)n2)c1` (stereo not drawn), with -8.11%. Consider `O=C1C(=Cc2cccs2)C(=O)c2ccccc21`, for which the “hERG current change (%, negative = inhibition) at 10uM” value stood at 12.7%. Regarding `COc1ccc(Cl)cc1C(=O)O/N=C(\N)c1ccccn1`, the “hERG current change (%, negative = inhibition) at 10uM” value was 2.9%. For the molecule `COc1ccccc1C(=O)N1CCN(c2cccc(Cl)c2)CC1`, the “hERG current change (%, negative = inhibition) at 10uM” value was 0.406%.

`NC(=O)C1CCN(C(=O)OCc2ccccc2)CC1`: the “hERG current change (%, negative = inhibition) at 10uM” value is listed as 18.8%. Regarding `CCOc1ccc(-n2c(=S)sc3c(=O)[nH]c(SCC(=O)C(C)(C)C)nc32)cc1`, the “hERG current change (%, negative = inhibition) at 10uM” value is reported as 40%. In the case of `O=C(Nc1ccc(S(=O)(=O)NC2=NCCCCC2)cc1)c1ccc([N+](=O)[O-])s1`, the “hERG current change (%, negative = inhibition) at 10uM” value was -46%. Turning to `Cc1ccc(NC(=O)CSc2nnc(C3CC3)n2N)cc1S(=O)(=O)N1CCOCC1`, the “hERG current change (%, negative = inhibition) at 10uM” value is on record as -1.56%.

Values taken from publication PMC4336329 (PLoS ONE, 2015).
